# Assay results from the BET-seq Pho4 binding data (Le et al. 2018).
# This is one part of the list. These are noisy estimates, calculated here from bound and input reads.
# Molecular target: T1, Pho4 (S. cerevisiae) (UniProt P07270)
# T1 sequence: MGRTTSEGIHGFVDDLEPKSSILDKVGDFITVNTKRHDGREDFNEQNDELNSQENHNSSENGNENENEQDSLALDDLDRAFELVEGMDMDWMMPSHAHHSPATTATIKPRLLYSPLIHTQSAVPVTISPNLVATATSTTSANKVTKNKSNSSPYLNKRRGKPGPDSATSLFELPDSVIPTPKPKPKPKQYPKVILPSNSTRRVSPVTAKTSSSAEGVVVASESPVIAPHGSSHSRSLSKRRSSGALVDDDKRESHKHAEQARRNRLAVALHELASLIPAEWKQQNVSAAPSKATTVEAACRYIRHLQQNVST
# Test: relative binding free energy (BET-seq); higher = weaker binding
# Conditions: reference: library average
row,Sequence,relative binding free energy
1,GTTATCACGTGGGTTG,0.05 kcal/mol
2,GTTGGCACGTGATCGT,0.02 kcal/mol
3,GAATGCACGTGTTGGT,0.08 kcal/mol
4,CGTCTCACGTGTTTGT,0.23 kcal/mol
5,TATATCACGTGGGATG,0.02 kcal/mol
6,TGTGTCACGTGAAACG,0.13 kcal/mol
7,GGTCACACGTGGTTAA,0.03 kcal/mol
8,TGGATCACGTGACATT,0.35 kcal/mol
9,GGGTTCACGTGGAAGT,0.45 kcal/mol
10,AATATCACGTGTGGCG,0.1 kcal/mol
11,AAGGACACGTGTAAGT,0.25 kcal/mol
12,AGGAACACGTGTGCGG,-0.06 kcal/mol
13,TTTAGCACGTGTCAGG,0.05 kcal/mol
14,AAGTTCACGTGAGTCG,0.48 kcal/mol
15,TTAGTCACGTGAGTGA,0.24 kcal/mol
16,TGTCGCACGTGGGAAA,0.01 kcal/mol
17,GTGTCCACGTGGTTAG,0.06 kcal/mol
18,TGTATCACGTGAAGCG,0.18 kcal/mol
19,CGACGCACGTGGGGGA,-0.27 kcal/mol
20,GGGGGCACGTGTGAAA,0.01 kcal/mol
21,GTATTCACGTGGTGAA,0.12 kcal/mol
22,GGAGCCACGTGGCGGT,-0.16 kcal/mol
23,TAGTTCACGTGAGTGT,0.51 kcal/mol
24,AAGTGCACGTGGCTGC,0 kcal/mol
25,GCGGGCACGTGTGGGA,0.08 kcal/mol
26,TTTTTCACGTGACTGG,0.35 kcal/mol

row,Sequence,relative binding free energy
1,TTAGGCACGTGGGGCC,-0.19 kcal/mol
2,TTATGCACGTGGGTCC,-0.17 kcal/mol
3,GTGGACACGTGGGATT,0.02 kcal/mol
4,GGCTGCACGTGTGTGG,0.1 kcal/mol
5,TCGGGCACGTGGAGTA,-0.2 kcal/mol
6,TGTAACACGTGCAGGG,-0.05 kcal/mol
7,GTTTTCACGTGGCGTA,0.21 kcal/mol
8,GATGGCACGTGTAGAA,0.05 kcal/mol
9,TGTACCACGTGGGTAG,-0.2 kcal/mol
10,AGCATCACGTGGTGTG,0.02 kcal/mol
11,TGAATCACGTGGGAGT,0.23 kcal/mol
12,AGGCGCACGTGGGTCT,-0.34 kcal/mol
13,AGGGACACGTGCGAGT,0 kcal/mol
14,CTTCTCACGTGTTGTA,0.19 kcal/mol
15,ACTTTCACGTGGGTTA,0.31 kcal/mol
16,TGCACCACGTGGGAGG,-0.16 kcal/mol
17,GCTTGCACGTGATTTG,0.18 kcal/mol
18,TCTGGCACGTGGCGGC,0.04 kcal/mol
19,CTAGTCACGTGTTTAG,0.01 kcal/mol
20,GGTCGCACGTGAGGAA,0.32 kcal/mol
21,TGGCTCACGTGGGTAC,0.22 kcal/mol
22,CGGTGCACGTGGCTTG,-0.15 kcal/mol
23,GTTTACACGTGCTTAG,0.21 kcal/mol
24,TGTAGCACGTGCTTTG,-0.2 kcal/mol
25,TTGTACACGTGGTCAT,-0.17 kcal/mol
26,TAATTCACGTGTTATG,0.32 kcal/mol

row,Sequence,relative binding free energy
1,GTTGGCACGTGTGCGT,-0.2 kcal/mol
2,GGGTGCACGTGTGGTA,0.12 kcal/mol
3,GCGGTCACGTGAAAGG,0.4 kcal/mol
4,CCTGTCACGTGTGTAG,0.13 kcal/mol
5,AAATTCACGTGGGGTG,0.09 kcal/mol
6,TCTTGCACGTGCGGGG,-0.05 kcal/mol
7,AATATCACGTGTATGA,0.06 kcal/mol
8,TTCTGCACGTGTAAGA,0.16 kcal/mol
9,TAGTTCACGTGACTGT,0.25 kcal/mol
10,ATTTACACGTGGCTTG,0.18 kcal/mol
11,GTGAGCACGTGAGTGA,0.26 kcal/mol
12,TGACTCACGTGTGGGG,0.22 kcal/mol
13,TATGGCACGTGCGCGG,-0.33 kcal/mol
14,TAGGACACGTGCGAGG,-0.02 kcal/mol
15,GTGTGCACGTGGGCGC,-0.19 kcal/mol
16,TAAAACACGTGGTTTG,-0.07 kcal/mol
17,GATTTCACGTGATAGT,0.46 kcal/mol
18,GAAGGCACGTGAGTGT,0.28 kcal/mol
19,GGTAACACGTGTAGGG,0.12 kcal/mol
20,TTTGCCACGTGTGGTG,-0.02 kcal/mol
21,TCGGGCACGTGGCGCG,-0.22 kcal/mol
22,AATTGCACGTGATTGT,0.1 kcal/mol
23,GGATACACGTGGTTTT,-0.03 kcal/mol
24,GAATACACGTGGGGGA,0.08 kcal/mol
25,GGGTCCACGTGCGAGT,-0.01 kcal/mol
26,AATGACACGTGAGAGG,0.27 kcal/mol

row,Sequence,relative binding free energy
1,TGGTTCACGTGTAGGT,0.25 kcal/mol
2,TTTCGCACGTGTCAGG,0.1 kcal/mol
3,GTTCTCACGTGGGAAT,0.27 kcal/mol
4,TGTTTCACGTGAGCTA,0.36 kcal/mol
5,GTAAACACGTGTGGTG,0.06 kcal/mol
6,AGGAGCACGTGGGTCA,-0.29 kcal/mol
7,GTCATCACGTGGTGCG,0.22 kcal/mol
8,ACATGCACGTGTGTGT,-0.05 kcal/mol
9,ATAGTCACGTGGAGTG,0.03 kcal/mol
10,GTGTCCACGTGGGATT,0.03 kcal/mol
11,TGCGACACGTGTATGG,0.11 kcal/mol
12,CGGGACACGTGGAGTG,-0.01 kcal/mol
13,TTGGGCACGTGATCGA,-0.07 kcal/mol
14,TTGGTCACGTGGTAAC,0.26 kcal/mol
15,AAAAACACGTGAGGGT,0.28 kcal/mol
16,GATTGCACGTGTAGAT,0.22 kcal/mol
17,TACTTCACGTGGTTTT,0.38 kcal/mol
18,AAAAGCACGTGAGGTG,0.13 kcal/mol
19,TTTAGCACGTGTGGCC,0.03 kcal/mol
20,TGTTGCACGTGACTTA,0.14 kcal/mol
21,GGATTCACGTGTTTAA,0.35 kcal/mol
22,GTACGCACGTGGGTTT,-0.18 kcal/mol
23,ATTGTCACGTGCTAGG,0.06 kcal/mol
24,GGTTTCACGTGTATGC,0.34 kcal/mol
25,TGCATCACGTGGTGAG,0.06 kcal/mol
26,GTTATCACGTGCGATA,0.2 kcal/mol

row,Sequence,relative binding free energy
1,TCTGGCACGTGTATGG,-0.04 kcal/mol
2,CGTAGCACGTGGGATT,-0.06 kcal/mol
3,TAAGACACGTGGGCGT,-0.13 kcal/mol
4,TATTGCACGTGTTATT,-0.02 kcal/mol
5,TGAGGCACGTGGGGTA,-0.29 kcal/mol
6,GAGTTCACGTGGACGT,0.38 kcal/mol
7,GGGGACACGTGATCTT,0.24 kcal/mol
8,TAGTGCACGTGTTGCG,-0.07 kcal/mol
9,GTGCGCACGTGAGGAG,0.22 kcal/mol
10,CGGTTCACGTGGGCTT,0.18 kcal/mol
11,TGGTCCACGTGTAGCG,0.23 kcal/mol
12,GGAGTCACGTGGCGAT,0.03 kcal/mol
13,GTTGACACGTGGAGCT,0.09 kcal/mol
14,TAGTTCACGTGTATTA,0.26 kcal/mol
15,ATGTTCACGTGATATG,0.19 kcal/mol
16,CGGGTCACGTGGGCGG,-0.05 kcal/mol
17,TATGACACGTGTAGTG,-0.12 kcal/mol
18,ATTTGCACGTGGTATG,-0.05 kcal/mol
19,ATATGCACGTGTACGT,-0.03 kcal/mol
20,AGACTCACGTGGTTGT,0.07 kcal/mol
21,TGCAACACGTGGTTGT,-0.17 kcal/mol
22,GTGAGCACGTGGGTAA,-0.23 kcal/mol
23,GGAGTCACGTGTGGAT,0.16 kcal/mol
24,AATAGCACGTGTGAAT,0.13 kcal/mol
25,CTCGTCACGTGGCTGG,0.06 kcal/mol
26,GGATACACGTGTGAGA,0.26 kcal/mol

row,Sequence,relative binding free energy
1,TAGCTCACGTGTAGTA,0.28 kcal/mol
2,AGATTCACGTGGCTTG,0.26 kcal/mol
3,ATTAACACGTGAGGTA,0.14 kcal/mol
4,AGGTTCACGTGGCGAT,0.16 kcal/mol
5,ATCATCACGTGTTTAG,0.13 kcal/mol
6,TATGTCACGTGTTTGA,0.06 kcal/mol
7,TTCGTCACGTGTATTC,0.12 kcal/mol
8,TTTGTCACGTGGGAAT,0.04 kcal/mol
9,TGGGCCACGTGTGAGG,-0.09 kcal/mol
10,TAGATCACGTGTGCTA,0.18 kcal/mol
11,GGCGCCACGTGGTCGG,-0.16 kcal/mol
12,TCTGGCACGTGCGGTA,-0.17 kcal/mol
13,ATAGGCACGTGTATAT,-0.13 kcal/mol
14,GTATTCACGTGGGGTT,0.22 kcal/mol
15,AGACGCACGTGTTTTG,-0.15 kcal/mol
16,CGGGACACGTGGGAGA,-0.11 kcal/mol
17,TCGGTCACGTGGAGTC,0.1 kcal/mol
18,TTAGTCACGTGGCAGG,-0.2 kcal/mol
19,TGGGTCACGTGCCGGT,0.17 kcal/mol
20,GTACACACGTGGGGGT,-0.11 kcal/mol
21,TAATGCACGTGGTGTA,-0.12 kcal/mol
22,CAGGTCACGTGTTTTA,0.19 kcal/mol
23,ATTAGCACGTGGTCGC,0.06 kcal/mol
24,CTGGTCACGTGCGGGT,0.05 kcal/mol
25,TTGGGCACGTGGGGAG,-0.12 kcal/mol
26,CATTGCACGTGTGCTT,0.02 kcal/mol

row,Sequence,relative binding free energy
1,TTGTGCACGTGCCGTA,-0.06 kcal/mol
2,ATGGTCACGTGGAAGT,0.15 kcal/mol
3,GGAATCACGTGGGCGT,0.14 kcal/mol
4,GGTTCCACGTGGGATT,0.14 kcal/mol
5,CGTAGCACGTGGTAGA,-0.07 kcal/mol
6,TTGCGCACGTGACGTG,-0.01 kcal/mol
7,ATAATCACGTGAGGGG,0.36 kcal/mol
8,GTGGGCACGTGCGTTC,-0.04 kcal/mol
9,GTCTGCACGTGTGGGT,0.05 kcal/mol
10,GTAGGCACGTGCAGTT,-0.14 kcal/mol
11,TAGGGCACGTGTCATG,-0.17 kcal/mol
12,CTTGTCACGTGGGCAT,-0.05 kcal/mol
13,AAGGTCACGTGTTGCG,0.3 kcal/mol
14,AGGGTCACGTGGGTGA,-0.03 kcal/mol
15,GTTACCACGTGGTGTG,-0.08 kcal/mol
16,ACAGGCACGTGGGTAT,-0.25 kcal/mol
17,AGTAGCACGTGGGTGG,-0.23 kcal/mol
18,ATGATCACGTGTATGT,0.2 kcal/mol
19,CTTTGCACGTGGATAG,-0.08 kcal/mol
20,ATTAGCACGTGAATTA,0.2 kcal/mol
21,TTGTACACGTGTGGTT,0.14 kcal/mol
22,GGTTCCACGTGGGCGT,-0.07 kcal/mol
23,ACTGCCACGTGGTGGT,-0.16 kcal/mol
24,TGGTGCACGTGCAGAA,-0.03 kcal/mol
25,GTAGGCACGTGTTGCG,-0.04 kcal/mol
26,TTGATCACGTGGAGCG,0.05 kcal/mol

row,Sequence,relative binding free energy
1,GGGGACACGTGAATGC,0.47 kcal/mol
2,GTCTGCACGTGGGAGG,-0.02 kcal/mol
3,GTTTACACGTGTCTAT,0.1 kcal/mol
4,GGGTCCACGTGAGTTC,0.42 kcal/mol
5,TGATTCACGTGGGGCA,0.18 kcal/mol
6,TTTCGCACGTGGCTTT,-0.13 kcal/mol
7,AATGCCACGTGGGTCT,-0.05 kcal/mol
8,GTAATCACGTGGAGAG,0.12 kcal/mol
9,ATGTGCACGTGAGAGC,0.14 kcal/mol
10,GGGGACACGTGGCGTC,-0.01 kcal/mol
11,CAAGGCACGTGTTAAG,0 kcal/mol
12,ATATACACGTGAGTTG,0.07 kcal/mol
13,TGGAGCACGTGGCTTA,-0.09 kcal/mol
14,TAGAGCACGTGTTCGT,-0.17 kcal/mol
15,TTGCGCACGTGTTAAG,0.03 kcal/mol
16,GTGCTCACGTGGGCGG,-0.01 kcal/mol
17,ATGTTCACGTGGAAAA,0.34 kcal/mol
18,AGTAGCACGTGTATTT,-0.11 kcal/mol
19,TGCGGCACGTGGTTTG,-0.15 kcal/mol
20,GTAGGCACGTGTACGG,0.04 kcal/mol
21,TCTTGCACGTGATTGT,0.2 kcal/mol
22,GAGGCCACGTGTTATT,0.12 kcal/mol
23,GGTGACACGTGATTTA,0.11 kcal/mol
24,TAAGTCACGTGCTGGG,0.13 kcal/mol
25,ATAGGCACGTGGGAGA,-0.18 kcal/mol
26,GAGTTCACGTGTCGGT,0.55 kcal/mol

row,Sequence,relative binding free energy
1,TCGAGCACGTGAGAGT,0.32 kcal/mol
2,TGTTACACGTGGCGGC,0.1 kcal/mol
3,TTGGTCACGTGAAAAG,0.28 kcal/mol
4,TGTGGCACGTGTTGTC,-0.07 kcal/mol
5,TTGGGCACGTGCCGGT,-0.25 kcal/mol
6,AAGTTCACGTGTTTTA,0.31 kcal/mol
7,TGGCGCACGTGGGAAT,-0.07 kcal/mol
8,GTATGCACGTGTCGGA,0 kcal/mol
9,CATTTCACGTGCTGTT,0.21 kcal/mol
10,CTTTGCACGTGTGGTT,0.07 kcal/mol
11,TTACGCACGTGATGCT,0.15 kcal/mol
12,TAAGGCACGTGTGCAG,-0.13 kcal/mol
13,TTCGGCACGTGTTCGT,0.08 kcal/mol
14,ATTGTCACGTGATTGG,0.25 kcal/mol
15,ATTTGCACGTGCCAGT,-0.1 kcal/mol
16,ATGGGCACGTGGAGGA,-0.14 kcal/mol
17,ATAGGCACGTGTGGTC,-0.13 kcal/mol
18,TTGGGCACGTGAGGTA,0.21 kcal/mol
19,CTCGACACGTGAGGGG,0.09 kcal/mol
20,GCTTTCACGTGTTTTT,0.23 kcal/mol
21,CTTTTCACGTGATGGG,0.22 kcal/mol
22,ATTGTCACGTGAGTAA,0.23 kcal/mol
